# Measured values: the supplement of paper PMC12217912
# The other results are listed elsewhere or left out. The full chains were built here from the parent and the listed change. Values near 0.05 are background.
# B1: TEV protease; numbered along this chain (parent)
# chain: MGESLFKGPRDYNPISSSICHLTNESDGHTTSLYGIGFGPFIITNKHLFRRNNGTLVVQSLHGVFKVKDTTTLQQHLVDGRDMIIIRMPKDFPPFPQKLKFREPQREERICLVTTNFQTKSMSSMVSDTSCTFPSGDGIFWKHWIQTKDGQCGSPLVSTRDGFIVGIHSASNFTNTNNYFTSVPKNFMELLTNQEAQQWVSGWRLNADSVLWGGHKVFMVKPEEPFQPVKEATQL
# Variants of: B1
# Assay: raw area under fraction-flipped curve 0-4 h after induction (AUC4h, not background-subtracted), DNA-recorder readout of cleavage of the substrate (dimensionless); higher = more cleavage of the substrate by the protease variant
# Conditions: temperature: 34 °C; time window: 0-4 h after rhamnose induction
# Description: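 In vivo DNA recorder in E. coli TOP10(DE3) ΔrhaA at 34 °C. Each TEVp single-site mutant (parent TEVp 0) is paired with a single-site variant of the 7-mer TEVs (canonical ENLYFQ|S). The substrate sits between flexible linkers in a Bxb1-sfGFP-TEVs-SsrA fusion, so cleavage stabilises Bxb1 and speeds flipping of a recombination array, read by NGS. The value is the raw area under the fraction-flipped curve over 0-4 h after rhamnose induction (AUC4h), with ≥20 reads per time point. It is not background-subtracted; inactive controls average about 0.047.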
# 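Further: Bxb1 expression induced with 0.2% (w/v) L-rhamnose at OD600 near 0.5, cultures sampled hourly, flipped fraction per protease–substrate barcode pair counted by paired-end Illumina sequencing.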
Variant,area with substrate ENLYFQC,area with substrate ENLYFQD,area with substrate ENLYFQF,area with substrate ENLYFQG,area with substrate ENLYFQI,area with substrate ENLYFQK,area with substrate ENLYFQL,area with substrate ENLYFQM,area with substrate ENLYFQN,area with substrate ENLYFQP,area with substrate ENLYFQR,area with substrate ENLYFQS,area with substrate ENLYFQY,area with substrate ENLYFQH,area with substrate ENLYFQT,area with substrate ENLYFQV,area with substrate ENLYFQW,area with substrate ENLYFQQ
H62Y,0.119,0.078,0.0693,0.155,0.0527,0.0726,0.0726,0.121,0.0728,0.0516,0.0596,0.102,0.0696,,,,,
V113M,0.101,0.0726,0.0995,0.0724,,0.0781,0.0672,0.0628,0.0822,0.0514,0.0497,0.0945,0.0831,0.0646,0.0667,0.0671,0.0587,
E107L,0.109,0.0578,,,,0.0625,,0.0721,0.0838,,0.0845,0.0951,0.0684,,0.0484,,,
I139V,0.101,0.0645,0.0853,0.113,0.0633,0.0608,0.0666,0.0879,0.139,0.0542,0.0633,0.111,0.08,,0.0494,0.0527,0.0642,
D137F,0.0995,,,0.0974,0.0449,0.0597,0.0525,,,0.0241,,0.0913,0.0759,0.0797,0.0745,,,
T115Y,0.119,0.0689,0.0681,,0.0611,0.0591,0.0485,,0.0653,,0.053,0.0994,0.0798,0.0831,,0.0634,0.0656,
D79W,0.0904,0.0796,,0.116,0.0438,,0.0648,0.0949,0.0782,0.0489,0.0866,0.0886,,0.0807,0.0478,0.0538,0.0696,
G136D,0.0839,,,0.078,0.057,0.0635,0.0493,0.0836,0.0648,,0.0611,0.103,0.0608,0.0869,0.0627,0.0695,0.0543,
P94A,0.0983,,,,,,0.0588,,,0.0612,0.0431,0.104,0.0748,0.0737,,,0.0628,
T174K,0.0912,0.0622,0.0761,,,0.0953,0.0671,0.0668,0.0929,0.053,0.0627,0.0853,,0.0558,0.0651,,,0.0804
K66D,0.104,0.0757,,0.0703,0.0643,0.0604,0.0581,0.0911,0.0571,0.0382,0.105,0.0975,0.079,0.0673,0.0595,,0.0584,0.0769
P89L,0.106,,0.0987,0.0903,,,0.0516,,,,,0.0707,,0.0534,0.0559,0.0348,,
I85T,0.0417,0.0372,,,0.0414,,0.0437,0.0483,0.0577,0.0315,0.0575,0.0639,,,0.0474,,0.0525,
Q97A,0.0931,,,0.0873,0.0581,0.0685,0.0748,,,0.0586,0.0596,0.105,0.0934,,,,,
V126I,0.0901,0.0706,,0.0428,,,0.0571,0.0787,0.0579,,,0.102,0.0787,,0.0587,,0.0698,
